# Results taken from PubChem BioAssay (Tox21).
# “And” between values parts separate entries of the source, which are not always exact repeats. Equal values may be shown once. Inconclusive means that the source gave no clear call. Such entries were picked first, then a sample of the others. Where the call is inconclusive, the potency comes from a doubtful curve fit. The source holds several records for some structures; these can differ, active in one and inactive in another. The source made the active and inactive calls. Unless noted, the call rests on the fitted dose curve; in most records, active means well fitted curve in the direction sought with a large enough effect in the repeat runs; inconclusive means weak or mixed curves; inactive means no such curve, though single readings can be large; an effect the other way counts as inactive or inconclusive.
# Assay: qHTS assay to identify small molecule agonists of H2AX - cell viability counter screen (AID 1224847; calls by dose curve; further: nearly all actives have a fitted effect of over 30% in size)
# Conditions: CHO-K1 viability, CellTiter-Glo luminescence, 3 h; series mostly up to 154 µM
# Summary of the method: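 Counter-screen for viability: CellTiter-Glo ATP luminescence read after 3 h compound treatment (15-point titration, 0.76% DMSO final) of CHO-K1 cells at 37C, with 30 min room-temperature reagent incubation.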
# Potency means the concentration at half of the fitted maximal effect; tags describe the fitted curve by direction and shape.
row,Compound,Potency
1,Oc1cc(Cl)c(Cl)cc1Cl,"active: 100 µM and inconclusive: 113 µM [cytotoxic, single point]"
2,c1ccc(NNc2ccccc2)cc1,inactive
3,CCC[CH2][Sn]([Cl])([Cl])[CH2]CCC,active: 11.4 µM and active: 25.3 µM
4,Brc1ccc(Oc2cc(Br)c(Br)cc2Br)c(Br)c1,"inconclusive: 102 µM [cytotoxic, partial curve]"
5,Nc1c(Cl)c(Cl)nc(C(=O)O)c1Cl,"inconclusive: 50.5 µM [rising, partial curve, poor fit]"
6,C[C@]12CC[C@H](O)CC1=CC[C@@H]1[C@@H]2CC[C@]2(C)C(=O)CC[C@@H]12,"inconclusive: 113 µM [cytotoxic, single point]"

# Assay: qHTS assay to identify small molecule antagonists of the estrogen related receptor (ERR) signaling pathway from Tox21 library (AID 1224848); further: nearly all actives have a fitted effect of over 50% in size
# Conditions: ERR reporter cell line, luciferase antagonist mode, 18 h; series mostly up to 92.4 µM
# Summary of the method: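 Luciferase luminescence (ONE-Glo, 30 min room temperature) was the read-out. Cells of the NTP-supplied ERR line, 2,000 per well, were given 6 h at 37 C before compound addition in DMSO and 18 h exposure at 37 C.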
row,Compound,Potency
1,Cc1cc(C)c(C(=O)P(=O)(C(=O)c2c(C)cc(C)cc2C)c2ccccc2)c(C)c1,inactive
2,Cn1cc(C2=C(c3cn(C4CCN(Cc5ccccn5)CC4)c4ccccc34)C(=O)NC2=O)c2ccccc21,inconclusive: 11.9 µM [inhibitor]
3,COCC(C)N(C(=O)CCl)c1c(C)csc1C (centres undefined),active: 27.3 µM
4,COP(=O)(OC)C(O)C(Cl)(Cl)Cl (centres undefined),inconclusive: 69.2 µM [inhibitor]
5,CN1C(=O)[C@@H](NC(=O)c2cc3ccccc3[nH]2)N=C(c2ccccc2)c2ccccc21,"inconclusive: 5.96 µM [inhibitor, full curve]"

# Assay: qHTS RealTime-Glo MT Cell Viability Assay in HepG2 cells - 24 hour (AID 1224867); further: nearly all actives have a fitted effect of over 50% in size
# Conditions: RealTime-Glo luminescence; series mostly up to 76.8 µM
# Summary of the method: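 HepG2 cells were seeded at 600 cells/well together with NanoLuc luciferase and a cell-permeant prosubstrate, preincubated 5 h at 37 C/5% CO2, then pin-dosed with compounds in DMSO. Nonlytic luminescence from viable cells was read at each time point.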
row,Compound,Potency
1,Cn1cc(C2=C(c3cn(C4CCN(Cc5ccccn5)CC4)c4ccccc34)C(=O)NC2=O)c2ccccc21,"inconclusive: 16.9 µM [falling, partial curve]"
2,O=C(O)COc1nc(Cl)c(Cl)cc1Cl,inactive
3,O=C(NC(=O)c1c(F)cccc1F)Nc1cc(Cl)c(OC(F)(F)C(F)F)c(Cl)c1,inactive
4,COC[C@@H](NC(C)=O)C(=O)NCc1ccccc1,inactive

# Assay: qHTS RealTime-Glo MT Cell Viability Assay in HEK293 cells - 32 hour (AID 1224868); further: nearly all actives have a fitted effect of over 50% in size
# Conditions: RealTime-Glo luminescence; series mostly up to 76.8 µM
# Summary of the method: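 HEK293 cells were seeded at 600 cells/well together with NanoLuc luciferase and cell-permeant prosubstrate, preincubated 5 h at 37 C/5% CO2, then given compound in DMSO by pintool. Luminescence from viable-cell prosubstrate reduction was read repeatedly over 40 h.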
row,Compound,Potency
1,Oc1cc(Cl)c(Cl)cc1Cl,"inconclusive: 48.6 µM [cytotoxic, single point]"
2,CC(C)(C#N)C(C)(C)C#N,inactive
3,[CH3][Sn]([CH3])([Cl])[Cl],"inconclusive: 2.22 µM [rising, full curve] and inconclusive: 1.23 µM [rising, full curve]"
4,C#CC1(O)CCCCC1,inactive
5,C[C@H](CN1CCOCC1)C(C(=O)N1CCCC1)(c1ccccc1)c1ccccc1,"inconclusive: 53.1 µM [cytotoxic, partial curve]"
6,CN(C)[C@@H]1C(=O)C(C(N)=O)=C(O)[C@@]2(O)C(=O)C3=C(O)c4c(O)ccc(Cl)c4[C@@](C)(O)[C@H]3C[C@@H]12,"inconclusive: 39.7 µM [cytotoxic, partial curve]"
7,CCCCC(CC)COC(=O)Cl (centres undefined),"inconclusive: 54.9 µM [cytotoxic, partial curve, poor fit]"
8,Oc1ccc(Cc2ccc(O)cc2)cc1,"inconclusive: 19.7 µM [cytotoxic, partial curve]"
9,COP(=O)(O)OC,inactive
10,Cn1cc(C2=C(c3cn(C4CCN(Cc5ccccn5)CC4)c4ccccc34)C(=O)NC2=O)c2ccccc21,"inconclusive: 6.01 µM [cytotoxic, partial curve, poor fit]"
11,CCN(C(C)=O)c1cccc(-c2ccnc3c(C#N)cnn23)c1,inactive
12,CCOP(=S)(OCC)O/N=C(\C#N)c1ccccc1,inactive
13,Brc1ccc(Oc2cc(Br)c(Br)cc2Br)c(Br)c1,"active: 43.6 µM and inconclusive: 49.3 µM [cytotoxic, single point]"
14,Nc1c(Cl)c(Cl)nc(C(=O)O)c1Cl,inactive
15,O=P(O)(O)CN(CP(=O)(O)O)CP(=O)(O)O,"inconclusive: 13.5 µM [rising, single point] and inconclusive: 54.9 µM [rising, single point]"
16,O=C1C=CC(=O)C=C1,"inconclusive: 22 µM [rising, full curve]"
17,COP(=O)(OC)C(O)C(Cl)(Cl)Cl (centres undefined),"inconclusive: 44 µM [rising, partial curve]"
18,O=C(O)COc1nc(Cl)c(Cl)cc1Cl,"inconclusive: 25.1 µM [cytotoxic, partial curve, poor fit]"
19,C[C@]12CC[C@H](O)CC1=CC[C@@H]1[C@@H]2CC[C@]2(C)C(=O)CC[C@@H]12,"inconclusive: 49 µM [cytotoxic, partial curve] and inconclusive: 43.6 µM [cytotoxic, partial curve]"
20,CC(C)(C)c1ccc(OP(=O)(Oc2ccccc2)Oc2ccccc2)cc1,"inconclusive: 49.3 µM [cytotoxic, partial curve, poor fit]"

# Assay: A CellTox Green Cytotoxicity Assay to monitor cytotoxicity in HEK293 cells - 0 hour (AID 1224869); further: nearly all actives have a fitted effect of over 50% in size
# Conditions: CellTox Green fluorescence; series mostly up to 76.8 µM
# Summary of the method: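 Dead-cell fluorescence measured kinetically: asymmetric cyanine dye, HEK293, 600 cells/well, 5 h settle, 23 nL cpd/DMSO, 37 C, reads 0–40 h every 8 h.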
row,Compound,Potency
1,O=C(N[C@@H]1N=C(c2ccccc2F)c2cccc3c2N(CC3)C1=O)c1cc2ccccc2[nH]1,"inconclusive: 6.74 µM [activator, single point]"
2,CNC(=O)Oc1ccccc1C1OCCO1,inactive
3,O=P(O)(O)CN(CP(=O)(O)O)CP(=O)(O)O,"inconclusive: 61.6 µM [activator, single point]"
4,O=C(O)COc1nc(Cl)c(Cl)cc1Cl,"inconclusive: 56.2 µM [activator, partial curve, poor fit]"
